Results taken from PubChem BioAssay AID886 (National Center for Advancing Translational Sciences (NCATS), 2007).
Screen size: about 73,000 compounds; about 2,500 (3.4%) were called active. The inconclusive results got no clear call from the source; some entries with a clear call stand among them for comparison. The call rests on the fitted dose curve; in most records, active means well fitted inhibition curve with a large enough effect; inconclusive means small, poorly fitted or top-dose-only effect; inactive means no such curve, though single readings can be large or run the other way. A potency beside an inconclusive call is a rough fit, not a confirmed value.
Further: nearly all actives have a fitted effect of over 60% in size.
Potency means the concentration at half of the fitted maximal effect; tags describe the fitted curve by direction and shape.

These molecules were tested against 3-hydroxyacyl-CoA dehydrogenase type-2 (Homo sapiens) (UniProt Q99714) (assay: qHTS Assay for Inhibitors of HADH2 (Hydroxyacyl-Coenzyme A Dehydrogenase, Type II)). Conditions: recombinant HADH2, NADH fluorescence, beta-hydroxybutyryl-CoA; series mostly up to 57.1 µM.
Chain of UniProt Q99714 (Q99714 whole entry, looked up): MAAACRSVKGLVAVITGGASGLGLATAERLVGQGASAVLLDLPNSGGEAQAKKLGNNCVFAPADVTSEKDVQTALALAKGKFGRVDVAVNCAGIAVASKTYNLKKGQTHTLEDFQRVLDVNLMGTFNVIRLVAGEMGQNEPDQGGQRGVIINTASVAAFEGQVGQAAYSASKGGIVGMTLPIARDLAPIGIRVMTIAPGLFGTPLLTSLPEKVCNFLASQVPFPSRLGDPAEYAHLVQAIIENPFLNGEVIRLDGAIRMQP
Chain of UniProt Q99714 (Q99714 whole entry, looked up): as above
Procedure, shortened: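 Buffer 100 mM Tris-HCl pH 9.0/0.01% Tween-20; HADH2 20 nM; NAD+ 1 mM; beta-hydroxybutyryl-CoA 90 uM (all final). 15 min cpd preincubation, RT.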
With Cc1ccccc1NC(=O)c1c(O)c2cccc3c2n(c1=O)CCC3 the Potency was inconclusive: 31.6 µM [inhibitor, single point]. In the case of COc1ccc2ccccc2c1C1CC(=O)N2CN(C)CSC2=C1C#N (stereo not given), the Potency is reported as inconclusive: 0.631 µM [inhibitor, full curve]. Cc1onc(-c2ccccc2)c1C(=O)Nc1sc2c(c1C#N)CCC(C)C2 (stereo not given) was tested, and the Potency was inconclusive: 39.8 µM [inhibitor, single point]. For Cc1cc(C(=O)N[C@@H](c2ccccc2)[C@]2(C)C[C@H]2[C@@H](C)C(=O)Nc2ccc3ccccc3c2)n(C)n1, the Potency was “inactive”. In the case of Cc1cccn2c(=O)c3cc(C#N)c(=N)n(Cc4cccnc4)c3nc12, the Potency is reported as “inactive”. Oc1cccc2ccc(SSc3ccc4cccc(O)c4n3)nc12 was tested, and the Potency was active: 0.126 µM. In the case of CC(=O)Nc1ccc(C(=O)CSc2ncn(-c3ccccc3)n2)cc1, the Potency is reported as inconclusive: 12.6 µM [inhibitor, partial curve]. In the case of CCCn1c(C)nc2c(N(C)CCN(C)C)nc(C)nc21, the Potency is reported as “inactive”. S=c1nc2ccccc2c2nc(-c3ccccc3)[nH]n12 was tested, and the Potency was inconclusive: 20 µM [inhibitor, partial curve]. With CCOC(=O)/C(C#N)=C(\N)C(C)C(=O)Nc1ccccn1 (stereo not given) the Potency was “inactive”. In the case of COc1cc2cc(CN(CCN3CCCC3)C(=O)Nc3ccccc3Cl)c(=O)[nH]c2cc1OC, the Potency is reported as inconclusive: 39.8 µM [inhibitor, single point]. In the case of Cc1ccc(S(=O)(=O)N(C)CCCC(=O)N2CCN(C=O)CC2)cc1, the Potency is reported as “inactive”. For Cc1ccc(C(=O)NCc2ccco2)cc1S(=O)(=O)N1CCCCC1, the Potency was inconclusive: 31.6 µM [inhibitor, single point]. With Cc1ccc2nc(-c3cccc(NC(=O)c4ccc5c(c4)OCCO5)c3)oc2c1 the Potency was inconclusive: 25.1 µM [inhibitor, single point]. COc1cc(C)nc(-n2nc(C)cc2OC)n1 was tested, and the Potency was “inactive”. For O=c1ccc2c(OCCCCc3ccccc3)c3ccoc3cc2o1, the Potency was inconclusive: 7.94 µM [inhibitor, single point]. With O=C(C1CCCO1)N1CCN(c2ncccn2)CC1 (stereo not given) the Potency was inconclusive: 39.8 µM [inhibitor, single point]. With COc1ccc(OC)c(S(=O)(=O)N2CCC(C(=O)N3CCc4ccccc4C3)CC2)c1 the Potency was “inactive”. With CN1CCC2(CC1)CCN(C(=O)c1ccncc1)CC2 the Potency was “inactive”. In the case of COc1ccccc1NC(=O)CCSc1nnnn1C, the Potency is reported as inconclusive: 3.16 µM [inhibitor, single point]. In the case of N#C/C(=C(/O)CSc1nnc(Cc2cccs2)n1C1CCCCC1)c1nc2ccccc2[nH]1, the Potency is reported as inconclusive: 39.8 µM [inhibitor, single point]. With O=c1c2cnn(-c3ccccc3Cl)c2ncn1Cc1cccnc1 the Potency was “inactive”. In the case of C=CCNc1oc(-c2ccc(OCC)cc2)nc1C#N, the Potency is reported as active: 31.6 µM. With O=C(Cn1ncn2c(cc3ccccc32)c1=O)NCc1ccco1 the Potency was inconclusive: 25.1 µM [inhibitor, single point]. In the case of O=S(=O)(Nc1ccc2c(c1)OCO2)c1ccc(Br)s1, the Potency is reported as inconclusive: 31.6 µM [inhibitor, single point]. CCCCOc1ccc(C(=O)O)cc1 was tested, and the Potency was “inactive”. In the case of Cc1nc(Nc2nc(-c3ccccc3)cc(=O)[nH]2)nc2ccccc12, the Potency is reported as inconclusive: 39.8 µM [inhibitor, single point]. With C=C(C)CC1N(c2cccc(OC)c2)C(=O)C2C(C(=O)O)C3C=CC21O3 (stereo not given) the Potency was “inactive”. For Cc1ccc(S(=O)(=O)c2n[nH]n3c2nc(=O)c2ccccc23)cc1, the Potency was active: 25.1 µM. CCCCCCCCCCCCCCC1CO1 (stereo not given) was tested, and the Potency was “inactive”. COc1ccccc1CNc1ccnc(-c2cccnc2)n1 was tested, and the Potency was inconclusive: 39.8 µM [inhibitor, single point]. In the case of O=C(c1ccc2nc(-c3ccco3)c(-c3ccco3)nc2c1)N1CCN(c2ccccc2)CC1, the Potency is reported as active: 15.8 µM. For O=C(CSc1ncn[nH]1)c1ccco1, the Potency was inconclusive: 12.6 µM [inhibitor, partial curve]. For CCCCOn1c(C)c(C(=O)OCC)c2c3nonc3ccc21, the Potency was active: 25.1 µM. With Cc1c(NC(=O)c2ccc3c(c2)OCO3)c(=O)n(-c2ccccc2)n1C the Potency was inconclusive: 1.58 µM [inhibitor, single point]. CCOC(=O)N1CCC2(CC1)CC(=O)c1c(ccc3oc(C(=O)O)c(C)c13)O2 was tested, and the Potency was active: 15.8 µM. With CCCC(=O)Nc1ccc2c(c1)C(=O)N(CCC(=O)O)C2=O the Potency was active: 15.8 µM. CN(Cc1ccco1)c1ncnc2ccc(-c3cccnc3)cc12 was tested, and the Potency was inconclusive: 15.8 µM [inhibitor, partial curve]. In the case of Nc1ncnc2nc(-c3ccc(N4CCOCC4)nc3)cc(-c3cccc(Br)c3)c12, the Potency is reported as “inactive”. With CCCOc1ccccc1C1C(C(=O)OC)=CN(C(C)C)C=C1C(=O)OC the Potency was active: 31.6 µM.
